Test results published in PMC12040169 (PLOS Biology, 2025).
The list shows a part of the results.

What follows are compounds tested on T1, C. trachomatis L2/434/Bu expressing GFP (CTL2-GFP). Conditions: total inclusion area; 28.5 h, 10 µM; inhibitor.
T1 construct: L2/434/Bu GFP intracellular growth in HeLa cells
Set-up: species or system HeLa; C. trachomatis total inclusion area by high-content imaging, normalised to DMSO
Procedure, shortened: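 Following bulk GFP and resorufin fluorescence reads, infected cells were fixed, Hoechst-stained and imaged on a high-content platform. Inclusion total area and number per well served as growth proxies; nuclei counts indicated host viability. MICs were derived as for the fluorescence assay.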
For `Cc1ccc(NC(C(N)=O)c2c(C)[nH]c(=O)[nH]c2=O)cc1` (stereo not shown) [CBK111355], the “% of control remaining” value was 103.358.
`CC1=CCC2C(=O)N(c3ccccc3)C(=O)C2C1` (stereo not shown) [CBK086490] was tested, and the “% of control remaining” value was 97.4147.
In the case of `CCc1onc(C)c1C(=O)N1CCN(C2CCNC2)CC1` (stereo not shown) [CBK304258], the “% of control remaining” value is reported as 52.2686.
For `C=C(C)Cn1c(SCC(C)C)nnc1-c1ccc(O)nc1` [CBK200094], the “% of control remaining” value was 77.9356.
For `O=C(Cc1ccc(-c2ccccc2)cc1)NCc1cccnc1` [CBK262591], the “% of control remaining” value was 94.3414.
In the case of `Cc1cc(C[C@@H]2COC[C@H]2NCC(C)c2ccccc2)on1` (stereo partly shown) [CBK285145], the “% of control remaining” value is reported as 73.7714.
For `COC(=O)[C@@H](C)NC(=O)[C@@H]1CN(C(=O)NC(C)C)CCN1C(=O)C1CCCCC1` [CBK289622], the “% of control remaining” value was 110.689.
For `COc1ccc(OC)c(C(C)NC(=O)C2CCN(Cc3cccc(C(F)(F)F)c3)CC2)c1` (stereo not shown) [CBK148764], the “% of control remaining” value was 87.0003.
In the case of `CCOc1cccc(-c2cn3ccnc3c(Nc3ccc(Cl)cc3)n2)c1` [CBK066505], the “% of control remaining” value is reported as 105.542.
With `COc1ccc(NC(=O)Cn2cnc3c2c(=O)n(C)c(=O)n3C)cc1Cl` [CBK134216] the “% of control remaining” value was 98.4694.
In the case of `CSCCOc1cc(NC(C)C)ncn1` [CBK115889], the “% of control remaining” value is reported as 80.0637.
`CC(=O)Nc1ccc(NCc2ncc(C(C)(C)C)o2)c(Cl)c1` [CBK306135] was tested, and the “% of control remaining” value was 85.0657.
`Cc1cc(C)nc(SCC(=O)N2c3ccccc3C(C)(c3ccc(Cl)cc3)CC2(C)C)n1` (stereo not shown) [CBK073872] was tested, and the “% of control remaining” value was 58.1353.
With `CC(Cn1cncn1)C(=O)N1CCCCC1CCc1ccccc1` (stereo not shown) [CBK282265] the “% of control remaining” value was 69.918.
`Cc1[nH]c2cccc(C(=O)N3CCOC(C)(C(=O)NC4CCCC4)C3)c2c1C` (stereo not shown) [CBK285800] was tested, and the “% of control remaining” value was 131.842.
In the case of `O=c1c(-c2ccccc2)c(O)cc(-c2ccccc2)n1Cc1ccccc1` [CBK291188], the “% of control remaining” value is reported as 101.075.
In the case of `COc1cnc(-c2cc(Cl)cc(Cl)c2)c(NC(=O)c2ccsc2)n1` [CBK145340], the “% of control remaining” value is reported as 115.172.
In the case of `Cc1cccc(-c2csc3c(=O)[nH]c(N4CCC(C(=O)NCc5ccncc5)CC4)nc23)c1` [CBK215625], the “% of control remaining” value is reported as 86.7115.
For `Cc1c(CC(=O)O)c2c(n1Cc1ccc(F)cc1)CCCC2=O` [CBK287078], the “% of control remaining” value was 107.126.
`O=C(O)C[C@@H]1CCN(C(=O)C2CCCCC2)C[C@@H]1CCN1CCCCC1` [CBK288781] was tested, and the “% of control remaining” value was 104.972.
`Cc1cccc(CCNC(=O)N2CCN(Cc3ccccn3)CC2)c1` [CBK304057] was tested, and the “% of control remaining” value was 111.631.
`CCCn1cc(NC(=O)C2(c3ccccc3)CCOCC2)ccc1=O` [CBK304905] was tested, and the “% of control remaining” value was 8.043.
`CCn1cc(NC(=O)CC2CCN(Cc3cccc(C(F)(F)F)c3)CC2)cn1` [CBK286118] was tested, and the “% of control remaining” value was 88.9794.
In the case of `O=C(O)C[C@]1(C(=O)NC2CCCCCC2)CC(/C=C/c2ccccc2)=NO1` [CBK286732], the “% of control remaining” value is reported as 72.8368.
`Cc1cccc(OCCNC(=O)CN2CCCC2Cn2cncn2)c1` (stereo not shown) [CBK305345] was tested, and the “% of control remaining” value was 39.4408.
In the case of `COCC1CCCN1C(=O)c1cnn2c(C)c(Cc3ccccc3)c(C)nc12` (stereo not shown) [CBK162213], the “% of control remaining” value is reported as 93.5127.
For `CS(=O)(=O)c1sc(C(=O)NC(=S)Nc2cccc(C(F)(F)F)c2)c2c1C=CCC2` [CBK005654], the “% of control remaining” value was 97.5258.
`c1ccc(-c2nnc(C3CCNCC3)[nH]2)nc1` [CBK288629G] was tested, and the “% of control remaining” value was 120.272.
`O=C(NC1CCCC1)c1ccc(-c2cnc3[nH]c(=O)n(C4CCCCC4)c3n2)cc1` [CBK064582] was tested, and the “% of control remaining” value was 87.3802.
In the case of `CCOc1cc(/C=N/Nc2nncn2N)cc(I)c1O` [CBK027879], the “% of control remaining” value is reported as 97.6893.
With `C[C@@H](c1ccccc1)n1c(=O)[nH]c2ncc(-c3cccc4cccnc34)nc21` [CBK064199] the “% of control remaining” value was 139.254.
`Cc1ccccc1C(=O)NCC(=O)Nc1ccc(Br)c2ccccc12` [CBK091343] was tested, and the “% of control remaining” value was 78.4003.
With `Cc1ccc(N(CC(=O)Nc2ccc(S(=O)(=O)N3CCCCC3)cc2)S(C)(=O)=O)c(C)c1` [CBK263981] the “% of control remaining” value was 88.4579.
In the case of `O=C(CN1CCOCC1)N1CCN(C(=O)c2ccco2)CC1` [CBK144478], the “% of control remaining” value is reported as 90.8546.
`Nc1nc2cccnc2cc1-c1ccc2c(c1)OCCCO2` [CBK081201] was tested, and the “% of control remaining” value was 92.1518.
In the case of `O=C(COc1ccc([N+](=O)[O-])cc1)N/N=C/c1cc(Br)cc(Br)c1O` [CBK262094], the “% of control remaining” value is reported as 78.8236.
In the case of `Cc1ccc2c(c1)nc(CNC(=O)NCc1ccnc(C)n1)n2C` [CBK304292], the “% of control remaining” value is reported as 71.1679.
In the case of `Cc1ccccc1-n1ncc2c1NC(=O)N1CCCN=C21` [CBK284409], the “% of control remaining” value is reported as 70.5842.
In the case of `CC(C)(C)c1cn(C[C@H]2CC3CCN2C[C@@H]3C(=O)NC2CCCCC2)nn1` (stereo partly shown) [CBK289085], the “% of control remaining” value is reported as 107.927.
With `CC1CCc2c(sc(NC(=O)c3cc(-c4ccccn4)nc4c(Cl)cccc34)c2C(N)=O)C1` (stereo not shown) [CBK267744] the “% of control remaining” value was 133.794.
With `COCCn1c(CO)nnc1[C@H]1C[C@@H](NC(=O)c2ccc(F)cc2C)C1` [CBK306856] the “% of control remaining” value was 99.5664.
`CCCC(=O)c1ccc(S(=O)(=O)N2CCN(Cc3ccc(F)c(C(F)(F)F)c3)CC2)cc1` [CBK063162] was tested, and the “% of control remaining” value was 100.723.
For `CCCN(C)Cc1ccc(-c2cn(CC(=O)NCc3ccc(C(F)(F)F)cc3)nn2)cc1` [CBK164719], the “% of control remaining” value was 85.9935.
`CC(C)(C)S(=O)(=O)c1ccc2nc3c(n2c1)CCCC3` [CBK006753] was tested, and the “% of control remaining” value was 57.4271.
In the case of `O=C(COc1ccc(S(=O)(=O)N2CCOCC2)cc1)N1CCc2ccccc2C1` [CBK268350], the “% of control remaining” value is reported as 99.2996.
In the case of `Nc1ncc(-c2ccc(O)cc2)nc1N1CCC[C@@H]1CO` [CBK063669], the “% of control remaining” value is reported as 117.787.
For `NC(=O)CCn1c(=S)n(CCC(N)=O)c2ccccc21` [CBK262301], the “% of control remaining” value was 102.062.
`O=C1NCC2(C/C=C/CCOc3ccccc31)CCN(C(=O)CCN1CCCC1)CC2` [CBK292020] was tested, and the “% of control remaining” value was 58.8108.
With `Cc1[nH]nc(-c2ccc(OCc3cnn(-c4ccccc4)c3)cc2O)c1Oc1ccc(Cl)cc1` [CBK264939] the “% of control remaining” value was 105.04.
For `COC(=O)c1ccc2c(=O)n(CC(C)O)c(SC)nc2c1` (stereo not shown) [CBK305018], the “% of control remaining” value was 59.4682.
In the case of `Cc1cc2c(cc3c(=O)n(CC(=O)N4CCCCC4)nc(C)n32)o1` [CBK283630], the “% of control remaining” value is reported as 104.985.
`O=C(NCc1ccc(Cl)c(Cl)c1)c1cnoc1-c1ccccc1Cl` [CBK154942] was tested, and the “% of control remaining” value was 87.6089.
`N#CCc1ccc(Nc2cc(-c3cccc(N)c3)ncn2)cc1` [CBK091187] was tested, and the “% of control remaining” value was 105.305.
For `O=C(O)c1ccccc1-n1c(=O)c2cc3c(=O)n(-c4ccccc4C(=O)O)c(=O)c3cc2c1=O` [CBK261097], the “% of control remaining” value was 108.503.
For `CC(=O)N1CCc2sccc2C1c1ccc(NC(=O)c2ccccc2F)cc1` (stereo not shown) [CBK286433], the “% of control remaining” value was 81.9344.
`COc1cccc(NC(=O)N2CCN3C(=O)[C@H](Cc4ccc(O)cc4)NC(=O)[C@@H]3C2)c1` [CBK289618] was tested, and the “% of control remaining” value was 110.065.
With `Cc1noc(C2=CC=CN3C2=NNC32CCNCC2)n1` [CBK288058] the “% of control remaining” value was 108.926.
`O=C(CCSc1ccccc1)Nc1ccc(Br)cc1F` [CBK266825] was tested, and the “% of control remaining” value was 100.824.
With `Cn1cnc([N+](=O)[O-])c1Oc1cccc(C(F)(F)F)c1` [CBK002790] the “% of control remaining” value was 47.4526.
For `O=C(O)c1cccc2c1C(=O)N(Cc1ccc(F)cc1)C2` [CBK291183], the “% of control remaining” value was 117.985.
`O=C1N[C@@]2(CC3CCC2CC3C(=O)NC2CC2)Nc2ccccc21` (stereo partly shown) [CBK284454] was tested, and the “% of control remaining” value was 98.5606.
`O=C(c1ccncc1)N1CCCC1(CO)Cc1ccccc1` (stereo not shown) [CBK288620] was tested, and the “% of control remaining” value was 69.5753.
In the case of `COc1ccc(N2C(N)=C(C#N)C(c3cccc(OC(C)C)c3)C3=C2CCS3(=O)=O)cc1` (stereo not shown) [CBK293992], the “% of control remaining” value is reported as 120.643.
With `CC(Cc1nc(-c2ccnn2C)cs1)n1cc(Cl)cn1` (stereo not shown) [CBK304152] the “% of control remaining” value was 29.4505.
For `CC(=O)c1ccc(CN2CCCN(S(=O)(=O)c3ccc(C(F)(F)F)cc3Cl)CC2)cc1` [CBK063106], the “% of control remaining” value was 65.072.
In the case of `O=C(O)CS(=O)(=O)c1ccc(Cl)cc1` [CBK262036G], the “% of control remaining” value is reported as 102.821.
`c1ccc(OCCNc2nccnc2N2CCNCC2)cc1` [CBK013527] was tested, and the “% of control remaining” value was 80.419.
`Cc1cc(C2CCCCCN2C(=O)c2c(C)noc2C)no1` (stereo not shown) [CBK284845] was tested, and the “% of control remaining” value was 99.6756.
With `CN(C)CC(C)(C)CNC(=O)c1cnc2cc(C(F)(F)F)ccc2c1O` [CBK107427] the “% of control remaining” value was 66.5799.
In the case of `O=C(O)c1ccc2[nH]c(=O)[nH]c2c1` [CBK032631], the “% of control remaining” value is reported as 51.7227.
With `Cn1nc(C2CCN(Cc3ccccc3)CC2)c2cccnc21` [CBK285095] the “% of control remaining” value was 97.3226.
For `OC1CCn2c1nc1cc(Cl)ccc12` (stereo not shown) [CBK113623], the “% of control remaining” value was 83.672.
In the case of `COc1cccc(C(=O)Nc2nc(-c3ccc(C(C)C)cc3)cs2)c1` [CBK101110], the “% of control remaining” value is reported as 93.9931.
In the case of `Cc1ccc2nc(CN3CCC(CNc4ccccn4)C3)cc(=O)n2c1` (stereo not shown) [CBK306340], the “% of control remaining” value is reported as 24.6775.
`COC(=O)c1ccc(CNc2nc(OC)cc(OC)n2)cc1` [CBK093391] was tested, and the “% of control remaining” value was 92.5318.
For `CC1CCN(C(=O)[C@@H]2CN(C)C[C@]23CCc2ccccc2C3=O)CC1` [CBK284589], the “% of control remaining” value was 106.744.
For `O=c1[nH]c2ccc(S(=O)(=O)Nc3ccc(-c4ccccc4)cc3)cc2[nH]1` [CBK266999], the “% of control remaining” value was 91.8043.
In the case of `O=C(Nc1cccc2ccccc12)N1CCN(Cc2ccc3c(c2)OCO3)CC1` [CBK074747], the “% of control remaining” value is reported as 66.611.
In the case of `CSCC(=O)N[C@H]1CCN2C(=O)N(c3cccc(C(C)=O)c3)C(=O)[C@@H]2C1` [CBK289546], the “% of control remaining” value is reported as 91.272.
